Drawing on PubChem BioAssay AID488969 (Vanderbilt High Throughput Screening Facility, 2010), this text covers z-score for 68 compounds.

The structures appear in SMILES notation. The full ranking holds about 110,000 compounds; the median of “z-score” is about -0.1, and the highest 2% start at about 2. The list shows a part of the results. The source made the active and inactive calls.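 How the source made its calls: active means z-score in the third read window above 3 or below -3; inactive means the rest.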

The target in the assay is Metabotropic glutamate receptor 8 (Rattus norvegicus) (UniProt P70579). As to the kind of experiment: rat mGluR8 modulators via GIRK flux, primary screen, cell-based, thallium flux, HTS (AID 488969). Conditions: HEK293 rat mGluR8, GIRK (G protein-gated inwardly rectifying potassium channel) thallium flux, FluoZin2; at 10 µM; stronger effect = higher value; submaximal glutamate (EC20) added with thallium.
Sequence of UniProt P70579 (P70579 whole entry, looked up): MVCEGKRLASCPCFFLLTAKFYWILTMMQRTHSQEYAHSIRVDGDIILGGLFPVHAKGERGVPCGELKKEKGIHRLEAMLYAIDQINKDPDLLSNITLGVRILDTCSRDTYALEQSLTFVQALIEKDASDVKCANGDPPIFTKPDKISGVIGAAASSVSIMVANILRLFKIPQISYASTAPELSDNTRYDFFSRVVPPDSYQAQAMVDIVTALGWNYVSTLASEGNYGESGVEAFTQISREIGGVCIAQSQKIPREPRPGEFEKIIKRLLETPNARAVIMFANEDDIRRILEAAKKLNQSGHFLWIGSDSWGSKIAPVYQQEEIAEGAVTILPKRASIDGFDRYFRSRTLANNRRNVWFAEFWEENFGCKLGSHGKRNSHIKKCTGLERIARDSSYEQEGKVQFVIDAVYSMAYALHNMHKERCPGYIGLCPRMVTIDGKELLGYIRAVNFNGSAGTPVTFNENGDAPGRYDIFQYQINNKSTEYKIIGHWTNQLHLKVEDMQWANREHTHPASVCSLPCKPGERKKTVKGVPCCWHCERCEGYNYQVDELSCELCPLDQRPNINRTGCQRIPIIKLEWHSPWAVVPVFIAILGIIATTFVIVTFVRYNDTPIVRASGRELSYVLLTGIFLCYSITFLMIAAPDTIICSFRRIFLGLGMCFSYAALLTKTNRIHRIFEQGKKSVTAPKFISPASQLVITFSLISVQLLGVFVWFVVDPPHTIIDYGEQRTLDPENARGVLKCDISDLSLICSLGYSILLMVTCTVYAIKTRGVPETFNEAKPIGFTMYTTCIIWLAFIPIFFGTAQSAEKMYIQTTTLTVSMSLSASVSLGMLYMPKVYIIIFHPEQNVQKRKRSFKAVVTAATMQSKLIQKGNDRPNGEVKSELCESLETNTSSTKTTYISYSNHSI
On to `COc1cccc(C(C(=O)Nc2ccc(F)cc2)N(C(=O)Cn2nnc3ccccc32)C2CC2)c1` (stereo not drawn), for which the z-score stood at 0.374.
The result for `CCOC(=O)C(NC(=O)N1CCCCC1)(c1ccccc1)C(F)(F)F` (stereo not drawn) reads 1.12.
`Fc1ccccc1-c1nc(-c2ccc(Cl)cc2)no1` registered a z-score of -0.169.
With `CC(C)COc1ccc(CNC(=S)N/N=C/c2ccc([N+](=O)[O-])cc2)cc1`, the z-score was -0.147.
`CNC(=O)C1C2C=CC3(O2)C1C(=O)N(C1CC1)C3C(=O)NCc1ccc(OC)cc1` (stereo not drawn) registered a z-score of -0.267.
Regarding `COCCNc1nc2c(c(=O)n(C)c(=O)n2C)n1Cc1cccc(C(F)(F)F)c1`, the z-score is -0.367.
`O=C(Oc1ccc([N+](=O)[O-])cc1)c1ccc2ccccc2n1` had a z-score of 0.829.
The figure for `CC1CC(C)CN(C(=O)c2ccncc2)C1` (stereo not drawn) is -0.15; for `Cn1cccc1-c1nc2ccccc2n1Cc1ccccc1` it is -1.27; for `O=C(C#Cc1cccc([N+](=O)[O-])c1)c1ccccc1` it is 0.135.
`CN(C)c1ccc(C2NCCS2)cc1` (stereo not drawn) returned a z-score of -0.298.
Consider `COc1ccc(C(=O)NCc2n[nH]c(=S)n2-c2ccccc2)cc1OC`, for which the z-score was -0.494.
Turning to `Cc1cccc(CC(=O)Nc2cc(C)c3c(=O)oc4ccccc4c3n2)c1`, the z-score was -0.214.
Take `CCc1cc2cccc(C)c2nc1SCC(=O)c1ccc(NC(C)=O)cc1`: the z-score is active: -4.63.
`COc1cc(/C=C2/SC(N)=NC2=O)ccc1Oc1ccc([N+](=O)[O-])cc1[N+](=O)[O-]` displayed a z-score of -0.644.
The compound `C=CCn1c(SCC(=O)Nc2ccc3c(c2)CCC3)nc2ccccc2c1=O` registered a z-score of -0.136.
`CC(C)NC(=O)COC(=O)c1ccc(Cl)c(S(=O)(=O)N2CCCC2)c1` yielded a z-score of -0.207.
The figure for `c1ccc(CNCc2ccc3c(c2)OCO3)nc1` is -0.353.
The figure for `COCCN(C(=O)CSc1nncn1-c1ccccc1)c1c(N)n(Cc2ccccc2)c(=O)[nH]c1=O` is -0.143.
On to `CC1=C(C(=O)OC(C)C)C(c2ccccc2Cl)CC(=O)N1` (stereo not drawn), for which the z-score was -0.853.
Consider `CC1(C)Cc2c(sc3[nH]c(=S)n(Cc4ccccc4)c(=O)c23)CO1`, for which the z-score is active: 14.5.
As to `CCC1=Nc2cc(C(=O)NCc3ccco3)ccc2Sc2ccc(Cl)cc21`, the z-score was -0.14.
The result for `c1ccc(OCCOc2ccccc2-c2nnco2)cc1` reads 1.01; that for `Cc1ccc(CCN2C(=O)CCC2(C)C(=O)NCc2cccnc2)cc1` (stereo not drawn), -0.384.
Take `CN(C)CCCNc1cn[nH]c(=O)c1Cl`: the z-score is -0.383.
Take `Cc1ccc(S(=O)(=O)N2CCN(S(C)(=O)=O)CC2)cc1`: the z-score was found to be 0.875.
`CCOC(=O)N1CCC(N2C(=O)c3ccccc3C2Nc2cc(C(=O)OC)cc(C(=O)OC)c2)CC1` (stereo not drawn) gave a z-score of -1.36.
The compound `O=C1c2ccccc2-c2c1cccc2C(=O)N1CCN(C(=O)c2ccco2)CC1` came in with a z-score of -0.641.
The figure for `CC(=O)C1=C(O)C(=O)N(c2nccs2)C1c1ccccc1` (stereo not drawn) is -2; for `Cc1ccccc1C(=O)Nc1ccccc1C(=O)NCc1ccccc1` it is -0.529; for `CCCc1nnc(NC(=O)CN2C(=O)c3ccccc3S2(=O)=O)s1` it is 1.
Consider `COc1ccc(-c2csc(N(CCc3ccccc3)C(=O)COc3ccccc3)n2)cc1`, for which the z-score turned out to be 0.243.
Compound `COc1ccc(CNC(=O)CN(CCC(C)C)S(=O)(=O)c2ccc3c(c2)OCCO3)cc1` showed a z-score of 0.0312.
In turn, `CCOC(=O)C1C2C=CC3(CN(c4cccc(Cl)c4)C(=O)C13)O2` (stereo not drawn) gave a z-score of -0.568.
With `CC(C)(C)N(NC(=O)c1ccccc1)C(=O)c1ccc(C(=O)N(NC(=O)c2ccccc2)C(C)(C)C)cc1`, the z-score is -0.0679.
The result for `FC(F)Oc1ccccc1NC(=S)NCc1ccco1` reads 0.0626.
Regarding `CC1CN=C(N(C(=O)Nc2ccccc2)c2ccc(S(=O)(=O)N3CCOCC3)cc2)S1` (stereo not drawn), the z-score was 0.945.
The result for `Cc1nc2scc(-c3ccco3)c2c(=O)n1/N=C/N(C)C` reads 0.326; that for `Nc1c(C(=O)c2ccccc2)sc(Nc2ccccc2)c1S(=O)(=O)c1ccccc1`, 0.456; that for `C=CCn1c(=N)c(C(=O)OCC)cc2c(=O)n3cccc(C)c3nc21`, -0.017.
On to `COc1ccc(C(=O)NN2CC(O)=C(c3nc4ccccc4n3C)C2=N)cc1OC`, for which the z-score is -0.703.
Take `Cc1ccc(C(=O)NC(=S)Nc2ccc3c(c2)OCCO3)c(C)c1`: the z-score stood at 2.7.
The figure for `CCOC(=O)C1=C(N)N(c2ccc(N3CCCCC3)cc2)C(=O)C1` is 0.709; for `O=C(CN1C(=O)NC2(CCCC2)C1=O)Nc1ccccc1F` it is 0.0198.
In the case of `c1ccc(-n2nnnc2NCCCN2CCOCC2)cc1`, the z-score was determined as 0.0335.
On to `Cc1nnc2n(c1=O)N=C(c1ccc(Cl)cc1)CS2`, for which the z-score was found to be 0.0699.
The compound `Cc1ccc(NC(=S)NCCCN2CCOCC2)cc1` displayed a z-score of -0.207.
The compound `CC1Cc2ccccc2N1C(=O)CN1C(=O)COc2ccccc21` (stereo not drawn) came in with a z-score of 0.564.
Turning to `Cc1ccc(S(=O)(=O)N2CCC(C(=O)NCC3CCCO3)CC2)cc1` (stereo not drawn), the z-score amounted to 0.0152.
`Cc1nc(SCC(=O)NCc2ccco2)c2c(C)c(C)sc2n1` came in with a z-score of -0.0392.
The result for `Cc1cc(C2=NNC(=NCc3ccccc3)SC2)c(C)n1-c1c(C)n(C)n(-c2ccccc2)c1=O` reads -0.278; that for `CCOc1ccc(/C(CC)=N/NC(=O)C2(C)CC2(Br)Br)cc1` (stereo not drawn), 0.538.
Turning to `COC(=O)c1sccc1NC(=O)c1ccco1`, the z-score was -0.499.
`COc1ccc(N2CCN(C(c3cccs3)c3nnnn3C3CCCC3)CC2)cc1` (stereo not drawn) yielded a z-score of -0.462.
`CN(CC(=O)Nc1ccc(Cl)cc1)CC(=O)Nc1ccc(F)c(F)c1F`: the z-score was -0.0456.
The result for `COc1ccccc1N(CC(=O)NCCSc1ccccc1)S(C)(=O)=O` reads -0.0727.
The figure for `CC(=O)CC(=O)Nc1ccn(-c2ccccc2)n1` is -0.208; for `CCN(CC)S(=O)(=O)c1ccc2[nH]cc(C(=O)NCCc3ccccc3)c(=O)c2c1` it is -0.113.
The figure for `COc1ccc(C2CC(=O)C3=C(C2)Nc2ncnn2C3c2ccccc2C)cc1` (stereo not drawn) is -0.877; for `CCN(CC)c1ccc(NC(=O)C2CCCN(S(=O)(=O)c3cccnc3)C2)c(C)c1` (stereo not drawn) it is -0.605; for `COc1cccc2cc(-c3nc(-c4cccs4)cs3)c(=O)oc12` it is -0.744.
The compound `C/C(=N\NS(=O)(=O)c1ccc(C)c([N+](=O)[O-])c1)c1cc2ccccc2o1` displayed a z-score of -0.245.
As for `Cc1cccc(-c2nc(CN3CCCC(C(=O)NC4CCCCCC4)C3)c(C)o2)c1` (stereo not drawn), the z-score came out at 1.13.
In the case of `Cc1noc(C)c1CSc1ccccc1C(=O)N1CCN(c2ccccc2)CC1`, the z-score is -0.323.
In turn, `Cc1cc2ccccc2c(=O)n1CC(=O)NCC(=O)N1CCCC(C)C1` (stereo not drawn) displayed a z-score of 0.0756.
In turn, `COCCNC(=O)c1cccc(Nc2nc(-c3ccccc3)c3cc(Cl)ccc3n2)c1` had a z-score of -1.26.
Take `Cc1ccccc1OCC(=O)OCC(=O)Nc1cc(C(F)(F)F)ccc1N1CCOCC1`: the z-score is -0.183.
Consider `CCC(CC)c1nnc(NC(=O)c2c(-c3ccccc3)noc2C)s1`, for which the z-score is -0.156.
